Data published in publication PMC10668032.
Some of the results follow. At the low end of the ranking the order means little.

Each sequence was assayed against SIX1 homeodomain (reference allele) (UniProt Q15475) (assay: universal protein binding microarray). Settings: Universal all-10-mer PBM (8x60K, AMADID 030236), 300 nM GST-tagged protein, Alexa Fluor 488 anti-GST; buffer, salt, pH and temperature not stated; high values mean tight binding; most listed sequences are background and not binding sites; double strand, one strand shown.

Row | Sequence | binding signal
1 | GTGCCCAA | -0.146 E-score
2 | GGGGTTCA | 0.0958 E-score
3 | ACCGAGTG | 0.027 E-score
4 | CGCCTGGC | -0.281 E-score
5 | TCAACCAA | 0.0341 E-score
6 | CGTAATAC | 0.256 E-score
7 | CCTTTCAG | -0.202 E-score
8 | CGGCATTA | -0.154 E-score
9 | ACAGACGG | -0.0964 E-score
10 | AACGCGCA | -0.145 E-score
11 | ACGGCCGG | -0.045 E-score
12 | ACAATTGT | -0.107 E-score
13 | GTCCGAAC | -0.262 E-score
14 | GCTTTTCA | -0.0932 E-score
15 | CACAATCC | 0.179 E-score
16 | ATAACCCC | 0.251 E-score
17 | AGCCCAGA | 0.0639 E-score
18 | AACTGGCA | -0.129 E-score
19 | CGTTCCGA | -0.021 E-score
20 | AAGGCGGC | -0.144 E-score
21 | GGACGAGA | 0.0597 E-score
22 | ATTTCATC | 0.0428 E-score
23 | AGGAGTCA | 0.0248 E-score
24 | AGGGGATA | 0.425 E-score
25 | GCGACCCC | 0.239 E-score

Row | Sequence | binding signal
26 | TGATATCA | 0.48 E-score
27 | TACCCGAA | 0.0295 E-score
28 | GAGAGAAC | -0.068 E-score
29 | TCAAAACA | -0.102 E-score
30 | CTTCCCTA | -0.168 E-score
31 | GAGTGGCC | -0.079 E-score
32 | TCGCATCA | 0.143 E-score
33 | AAGAGTAA | -0.0905 E-score
34 | ATTTACTC | -0.0539 E-score
35 | AGCTCCCT | -0.134 E-score
36 | GGCTGCAC | -0.131 E-score
37 | CTCAAAAA | -0.176 E-score
38 | GCCTAAGC | -0.123 E-score
39 | ACGGACGG | -0.00363 E-score
40 | CCCGGAAG | -0.0222 E-score
41 | CCAAAGGC | -0.0887 E-score
42 | CAATCTTA | -0.192 E-score
43 | CCAAGATA | 0.229 E-score
44 | AAATACGA | 0.119 E-score
45 | CATCGAGA | 0.121 E-score
46 | AGCCGAAT | 0.106 E-score
47 | TCAAGTGA | -0.00424 E-score
48 | ATTGCGCC | -0.0314 E-score
49 | CATCGGAC | 0.0036 E-score
50 | CCTTACTA | -0.0286 E-score

Row | Sequence | binding signal
51 | ATAGGCAT | 0.0549 E-score
52 | CATGGGTA | 0.0939 E-score
53 | AAGGTGGA | 0.0838 E-score
54 | AGACGATG | 0.109 E-score
55 | ACGAGCTC | -0.00935 E-score
56 | ACACAATC | 0.0823 E-score
57 | CCGACGGC | -0.0727 E-score
58 | AAAGGGCC | -0.341 E-score
59 | GCCTCTAA | 0.0138 E-score
60 | TACGGGCA | -0.0221 E-score
61 | AATACTAC | 0.181 E-score
62 | CAACAATC | 0.0604 E-score
63 | AACAAATC | 0.0594 E-score
64 | AGGATCAT | 0.38 E-score
65 | GTGCTTCA | -0.231 E-score
66 | AAATTAAC | -0.16 E-score
67 | CCAACGGG | -0.0501 E-score
68 | TAATAGTA | 0.136 E-score
69 | AGGCATAA | -0.12 E-score
70 | GTAAGAAA | 0.00823 E-score
71 | AATGCGCT | -0.16 E-score
72 | ATCTTAAG | 0.0288 E-score
73 | CCTGTACA | -0.075 E-score
74 | AGCATATG | -0.0476 E-score
75 | AAGTTATG | -0.149 E-score

Row | Sequence | binding signal
76 | CTTTCGAC | -0.106 E-score
77 | CGCTGGAA | -0.271 E-score
78 | ACCCTCAA | -0.0356 E-score
79 | ATGCGCAG | -0.0035 E-score
80 | AGTGACTG | -0.32 E-score
81 | AAACCAGC | -0.0648 E-score
82 | CCGCAGAG | 0.112 E-score
83 | AACGGCTA | -0.00326 E-score
84 | CATATAAC | 0.113 E-score
85 | GTAAAGAA | -0.227 E-score
86 | CGAGGAAG | -0.283 E-score
87 | TCAAGCCA | -0.0746 E-score
88 | AGTTTCCA | -0.188 E-score
89 | TACGGTGA | 0.0562 E-score
90 | ACGATCAA | -0.0514 E-score
91 | TCCAGCCA | -0.179 E-score
92 | GGGAAACA | -0.0628 E-score
93 | CAGCTAAA | -0.143 E-score
94 | AGCCCGCT | -0.145 E-score
95 | AACACGCC | -0.214 E-score
96 | ACGCGGAC | -0.242 E-score
97 | GGTTGCGA | -0.0873 E-score
98 | ACCCGCCA | 0.175 E-score
99 | AGACGTAC | -0.0313 E-score
100 | ATAACAAG | 0.132 E-score

Row | Sequence | binding signal
101 | AGTCCACA | -0.115 E-score
102 | CAATGGAG | 0.0116 E-score
103 | GCAGAGGA | 0.131 E-score
104 | ACAAGGGG | 0.138 E-score
105 | GAGCAGTA | -0.038 E-score
106 | CGTCAATA | -0.00261 E-score
107 | ATAATATA | 0.298 E-score
108 | GCGTTGAA | -0.0972 E-score
109 | GAACGAGA | -0.0603 E-score
110 | GTAGTAGA | -0.00164 E-score
111 | CGTGCCGA | 0.0899 E-score
112 | ATAAAATG | -0.106 E-score
113 | ACCATCGA | -0.103 E-score
114 | AAGTCCGG | -0.18 E-score
115 | GAGACTGA | -0.0625 E-score
116 | AGGACCCC | -0.0126 E-score
117 | CCCGGTGA | -0.112 E-score
118 | AGTCACTA | -0.0779 E-score
119 | ACTTAAGT | -0.297 E-score
120 | GAATAAGC | -0.0399 E-score
121 | AACACCAA | 0.227 E-score
122 | ACTAAATG | 0.147 E-score
123 | ATTTACCA | -0.0681 E-score
124 | AACACTTC | -0.0464 E-score
125 | ATTGCTTC | -0.0843 E-score

Row | Sequence | binding signal
126 | AAATCGAG | -0.234 E-score
127 | ACGGCGTC | -0.159 E-score
128 | GGCACATA | 0.0957 E-score
129 | ACACTTGG | -0.108 E-score
130 | CCGAAAAA | -0.0875 E-score
131 | GGGGCGAC | -0.261 E-score
132 | TATCCGCA | 0.401 E-score
133 | CGGAAATC | -0.0199 E-score
134 | CAGACTCG | -0.21 E-score
135 | TAAAACGA | -0.222 E-score
136 | CGCGAGGC | -0.191 E-score
137 | CACGGTGC | -0.042 E-score
138 | ACTTGTAA | -0.167 E-score
139 | ATCAAGGC | 0.114 E-score
140 | CTCTGCAG | -0.167 E-score
141 | GGGGTAAA | 0.0714 E-score
142 | CCCAAAGC | -0.222 E-score
143 | AACTGGTA | 0.00825 E-score
144 | AACCCATC | 0.0293 E-score
145 | TCGCCGCA | -0.156 E-score
146 | AGACCAGG | 0.0214 E-score
147 | CTTGAGAA | -0.0811 E-score
148 | AGGTGAAA | -0.216 E-score
149 | AGTCTTAG | -0.0937 E-score
150 | CAAATGTC | -0.353 E-score

Row | Sequence | binding signal
151 | GATGGACC | -0.132 E-score
152 | CGTCTTAA | -0.0169 E-score
153 | CAGTTTAC | -0.14 E-score
154 | AACTCGTA | 0.0341 E-score
155 | TCGGGTCA | 0.166 E-score
156 | ATACGAAG | 0.199 E-score
157 | AACCATGG | -0.163 E-score
158 | TCTGGAAA | -0.0625 E-score
159 | AATGGCGA | -0.094 E-score
160 | GCGCACGC | -0.153 E-score
161 | AATGGGCG | -0.229 E-score
162 | CCAGACGC | -0.0669 E-score
163 | CCATAAAC | -0.023 E-score
164 | CGACGCTC | -0.197 E-score
165 | GAGATCAA | 0.31 E-score
166 | AGTCGTCA | -0.272 E-score
167 | AACTTGCC | -0.344 E-score
168 | GCTACGGA | -0.109 E-score
169 | ACATCACG | -0.178 E-score
170 | ATGTCGAA | -0.0645 E-score
171 | CGGACCCA | 0.0829 E-score
172 | ACAAATAG | -0.0412 E-score
